Measured values from PubChem BioAssay AID894 (National Center for Advancing Translational Sciences (NCATS), 2007).
Where “and” joins values, the source holds several entries; their conditions need not be identical. Equal entries are not always repeated. In all, about 150,000 compounds went through this assay and about 6,500 (4.3%) were called active. This list was built around the results that the source calls inconclusive (neither active nor inactive); the mix of calls is not that of the screen. Calls come from the whole dose curve; as a rule, active = well fitted inhibition curve with a large enough effect (not every such curve was filed as active); inconclusive = small, poorly fitted or top-dose-only effect, or another doubt; inactive = no such curve, though single readings can be large or run the other way. Potencies of inconclusive entries are doubtful fits and often do not repeat.

Target: 15-hydroxyprostaglandin dehydrogenase [NAD(+)] (Homo sapiens) (UniProt P15428)
Experiment: qHTS Assay for Inhibitors of HPGD (15-Hydroxyprostaglandin Dehydrogenase)
Settings: purified HPGD, NADH fluorescence kinetic, PGE2 substrate; activity change, negative = inhibition: hits give low values
Summary of the method: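 20 nM HPGD preincubated 15 min at room temperature with compound in 50 mM Tris-HCl pH 8, 0.01% Tween 20. Started with 1 mM NAD+ and 30 uM prostaglandin E2; NADH fluorescence (360/450 nm) read 5 times over 30-s intervals, last minus first.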
% is set by controls: 0 for no effect and ±100 for the full control effect; potency is the fitted concentration of half-maximal effect; tags give direction and shape of the fitted curve.

Chain of UniProt P15428 (P15428 whole entry, looked up): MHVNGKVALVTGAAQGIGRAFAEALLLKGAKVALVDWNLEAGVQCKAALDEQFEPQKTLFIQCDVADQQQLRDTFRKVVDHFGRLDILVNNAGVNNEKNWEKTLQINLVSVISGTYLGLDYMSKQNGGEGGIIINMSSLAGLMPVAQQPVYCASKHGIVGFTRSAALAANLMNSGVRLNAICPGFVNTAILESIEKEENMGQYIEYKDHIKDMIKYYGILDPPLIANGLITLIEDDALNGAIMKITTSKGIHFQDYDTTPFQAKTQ

Row | Compound | Potency | activity change, negative = inhibition
1 | O/N=C/c1ccccc1Oc1ccccc1 | active: 15.8 µM | 
2 | O=C(N/N=C/c1ccc2c(c1)OCO2)c1cc(-c2ccccc2Cl)nc2ccccc12 | inconclusive: 28.2 µM [inhibitor, single point] | 
3 | C#CCOC(=O)Nc1ccc(=O)n(Cc2c(Cl)cccc2Cl)c1 | inconclusive: 31.6 µM [inhibitor, partial curve] | 
4 | O=C1CC(c2ccco2)Cc2nc(N3CCN(Cc4ccc5c(c4)OCO5)CC3)ncc21 (stereo unspecified) | inconclusive: 31.6 µM [inhibitor, partial curve] | 
5 | COC(=O)c1cc(S(=O)(=O)N2CCC(C)CC2)ccc1F | inconclusive: 28.2 µM [inhibitor, partial curve] | 
6 | COc1cc(-c2nnc(-c3cc(OC)c(OC)c(OC)c3)o2)cc(OC)c1OC | inconclusive: 35.5 µM [inhibitor, partial curve] | 
7 | CC1CCCN(CCCNC(=O)c2coc3nc4ccccc4nc23)C1 (stereo unspecified) | inconclusive: 25.1 µM [inhibitor, partial curve] | 
8 | CN1CCN(c2ncc3nc(-c4ccccc4)c(=O)n(-c4ccccc4)c3n2)CC1 | inconclusive: 31.6 µM [inhibitor, partial curve] | 
9 | Cc1ccc(/C=C2\CCCC3=C2NC(=S)NC3c2ccc(C)cc2)cc1 (stereo unspecified) | active: 31.6 µM | 
10 | Cc1ccc(S(=O)(=O)ON2C(=O)c3cccc4cccc(c34)C2=O)cc1 | inconclusive: 35.5 µM [inhibitor, single point] | 
11 | Cc1ccc(-c2nnc3ccc(SCC(=O)N4CCc5ccccc54)nn23)cc1 | inconclusive: 31.6 µM [inhibitor, partial curve] | 
12 | CCn1c(=O)c([N+](=O)[O-])c(NCCc2ccc(OC)c(OC)c2)c2ccccc21 | active: 8.91 µM | 
13 | CN(C)CCNC(=O)C12CC3(C)CC(C)(CC(C)(C3)C1)C2 |  | inactive: 1.73%
14 | O=C(O)[C@@H]1[C@@H](C(=O)O)[C@@]23CCCC2=C2CC[C@@]3(C(=O)O)[C@@]3(C(=O)O)C[C@@]213 |  | inactive: -7.83%
15 | CC(=O)Nc1ccc(NC(=O)C(C)OC(=O)c2ccccc2C(=O)c2ccc(Cl)c([N+](=O)[O-])c2)cc1 (stereo unspecified) |  | inactive: -2.62%
16 | O=C(COC(=O)c1cccnc1)c1ccc(Cl)c(Cl)c1 | inconclusive: 31.6 µM [inhibitor, single point] | 
17 | COCCNC(=O)CC(c1ccccc1)c1ccccc1 | active: 14.1 µM | 
18 | CCC(Oc1ccccc1)C(=O)N1CCN(C(=O)C(CC)Oc2ccccc2)CC1 (stereo unspecified) |  | inactive: -3.69%
19 | CCN(CC)C(=O)CSC1=C(C#N)C(c2ccco2)C(C(=O)OCCOC)=C(C)N1 (stereo unspecified) | inconclusive: 17.8 µM [inhibitor, partial curve] | 
20 | O=c1oc2ccccc2cc1-c1cn(-c2ccccc2)c(=S)[nH]1 | inconclusive: 14.1 µM [inhibitor, partial curve] | 
21 | CC(=O)Nc1ccccc1-c1nc2ccccc2nc1OCC(=O)c1ccc(Cl)cc1 |  | inactive: -7.66%
22 | COc1cc(/C=C2\CC/C(=C\c3cc(OC)c(O)c(OC)c3)C2=O)cc(OC)c1O | inconclusive: 14.1 µM [inhibitor, partial curve] | 
23 | COc1cc(/C=N/NC(=O)C2C3CCCCC32C)cc(Br)c1O (stereo unspecified) | inconclusive: 22.4 µM [inhibitor, partial curve] | 
24 | CC(=O)Nc1ccc(-c2nn[nH]n2)cc1Cl |  | inactive: -2.33%

Row | Compound | Potency | activity change, negative = inhibition
25 | CCCCCCN(C(=O)CCCCCN1C(=O)NC(C2CCCCC2)C(C(=O)OCc2ccccc2)=C1C)C(C(=O)NCCCC)c1ccc(OCC(=O)OC)c(C(=O)OC)c1 (stereo unspecified) |  | inactive: -15.8%
26 | Cn1cc(/C=N/n2cnc3scc(-c4ccc(Cl)cc4)c3c2=O)c2ccccc21 | inconclusive: 31.6 µM [inhibitor, partial curve] | 
27 | Cc1cc(SCNC(=O)c2ccccc2)ncn1 |  | inactive: -9.34%
28 | COc1cc(OC)cc(-c2n[nH]c(=S)n2-c2cc(OC)ccc2OC)c1 | inconclusive: 14.1 µM [inhibitor, partial curve] | 
29 | Cc1cccc(Nc2nnc(SCC(=O)c3ccc(Br)s3)s2)c1C | inconclusive: 12.6 µM [inhibitor, partial curve] | 
30 | COC(=O)c1ccc2c(=O)n(CCCCCC(=O)N3CCN(c4ccc(F)cc4)CC3)c(=O)[nH]c2c1 | inconclusive: 25.1 µM [inhibitor, single point] | 
31 | COc1cc(/C=C/C(=O)OCC(=O)Nc2cc(S(=O)(=O)N3CCCCC3)ccc2C)ccc1O | inconclusive: 31.6 µM [inhibitor, single point] | 
32 | CCCCC(=O)NCCc1c(Cc2ccccc2)[nH]c2ccccc12 | active: 15.8 µM | 
33 | CCS(=O)(=O)c1nn2c(N)c(/C=C3/C=CC(=O)C(OC)=C3)c(=O)nc2s1 | inconclusive: 31.6 µM [inhibitor, single point] | 
34 | O=C(Nc1ncccn1)c1cc([N+](=O)[O-])cc([N+](=O)[O-])c1 |  | inactive: -10.2%
35 | CCn1c(COc2cccc3ccccc23)nnc1SCC(=O)OC1CCCCC1 | inconclusive: 14.1 µM [inhibitor, partial curve] | 
36 | COc1ccc2nc(NCc3ccccc3)[nH]c2c1 |  | inactive: -2.58%
37 | CCOc1c(C)cc(-c2ncccc2O)cc1C | inconclusive: 28.2 µM [inhibitor, partial curve] and inconclusive: 25.1 µM [inhibitor, partial curve] | 
38 | COCCNc1nc(C)nc2c1nc(-c1ccccc1)n2CCN1CCCCC1 | inconclusive: 25.1 µM [inhibitor, partial curve] | 
39 | C=C(C)C(=O)/C=C/c1ccc(C(F)(F)F)cc1 |  | inactive: -4.55%
40 | O=C(NCc1ccco1)Nc1ccc2snnc2c1 | inconclusive: 35.5 µM [inhibitor, partial curve] | 
41 | COc1ccc2c(=O)cc(-c3ccccc3)oc2c1O | inconclusive: 35.5 µM [inhibitor, partial curve] | 
42 | S=c1[nH]nc(-c2ccco2)n1/N=C/c1cccc(Cl)c1Cl | active: 2 µM | 
43 | COCCNCC(=O)C12CC3CC(CC(C3)C1)C2 |  | inactive: -3.1%
44 | Cc1cccc2c(=O)c(C(=O)N3CCCCCC3)c[nH]c12 | inconclusive: 28.2 µM [inhibitor, partial curve, poor fit] | 
45 | O=C(NCCN1CCOCC1)c1cc(Sc2cccc(Cl)c2)nc2ccccc12 |  | inactive: -1.7%
46 | COc1ccc(-c2nnc(SCC(=O)N(Cc3ccccc3)C(C)(C)C)o2)cc1OC | inconclusive: 12.6 µM [inhibitor, partial curve] | 
47 | CC(C)c1cccc2cc3c(nc12)-c1cccc(=O)n1C3 | inconclusive: 10 µM [inhibitor, partial curve] | 
48 | Cc1cc(NS(=O)(=O)c2ccc(NC(=O)C(C)Oc3ccc4c(C)cc(=O)oc4c3)cc2)no1 (stereo unspecified) | inconclusive: 31.6 µM [inhibitor, single point] | 

Row | Compound | Potency | activity change, negative = inhibition
49 | C/C(=N/NC(=O)c1cccc(C)c1)c1c(O)cc(C)oc1=O |  | inactive: -25.3%
50 | NC1=NC(=O)/C(=C/c2cn(Cc3ccccc3)c3ccccc23)S1 | active: 28.2 µM | 
51 | COc1ccc(Oc2nc(C(F)(F)F)nc3ccccc23)cc1 | inconclusive: 14.1 µM [inhibitor, single point] | 
52 | O=C(CCN1C(=O)c2ccccc2C1=O)NCCC1=CCCCC1 | inconclusive: 31.6 µM [inhibitor, partial curve] | 
53 | Cc1ccc(-c2nc3cnccn3c2Nc2c(C)cccc2C)o1 | inconclusive: 11.2 µM [inhibitor, partial curve] | 
54 | O=c1oc(-c2cccs2)nc2ccc(Br)cc12 | inconclusive: 39.8 µM [inhibitor, single point] | 
55 | CCn1c2ccccc2c2cc(NC(=O)N3CCOCC3)ccc21 | inconclusive: 25.1 µM [inhibitor, partial curve] | 
56 | COc1ccc2[nH]c(=O)c(CNC3CCCCC3)cc2c1 | inconclusive: 31.6 µM [inhibitor, partial curve] | 
57 | CCOC(=O)C1=C(C)NC(=O)CC1c1ccccc1 (stereo unspecified) |  | inactive: -6.01%
58 | C#CC(=O)N(c1cccc(OC)c1)C(C(=O)NC1CCCC1)c1cccs1 (stereo unspecified) | inconclusive: 35.5 µM [inhibitor, single point] | 
59 | C=CCn1c(CSc2nc3ccccc3s2)n[nH]c1=S | active: 17.8 µM | 
60 | COc1cc(/C=N/Nc2ccc(F)cc2F)cc(OC)c1O |  | inactive: -29%
61 | CC(=O)Nc1ccc(NC(=O)c2ccc(-n3c(C)ccc3C)cc2)cc1 | active: 25.1 µM | 
62 | CCCN1CCN(c2ncnc3c2nnn3Cc2ccccc2)CC1 | active: 25.1 µM | 
63 | COc1ccc(C(=O)CCC(=O)O)cc1 |  | inactive: -7.71%
64 | N#Cc1nc(-c2cccs2)oc1N1CCOCC1 | inconclusive: 3.55 µM [inhibitor, partial curve] | 
65 | CCc1c2c(nc3cccc(OC)c13)OC(CC)C2 (stereo unspecified) | inconclusive: 28.2 µM [inhibitor, partial curve] | 
66 | COC(=O)/C=C/c1ccsc1NC(C)=O |  | inactive: -7.21%
67 | COc1ccc(C2c3c(ncn(CCN4CCOCC4)c3=N)Oc3ccc4ccccc4c32)cc1OC (stereo unspecified) |  | inactive: -1.24%
68 | Cc1cccc2cc(CN(CCN(C)C)C(=S)Nc3ccccc3)c(=O)[nH]c12 |  | inactive: -3.65%
69 | Cc1ccc(S(=O)(=O)NC(=O)CSc2nc3ccccc3s2)cc1 |  | inactive: -12.3%
70 | N#Cc1cc2c(nc1SCC(=O)Nc1sc3c(c1C#N)CCC3)CCC2 |  | inactive: -24.4%
71 | O=C(/C=C/c1c(C(=O)O)[nH]c2cc(Cl)cc(Cl)c12)Nc1ccccc1 | inconclusive: 20 µM [inhibitor, partial curve] | 
